Laboratory results: the antibiotic and cytotoxicity screens of Wong et al. (2023)
Some of the results follow.

System: HSkMC (human skeletal muscle cells)
Test: cytotoxicity call (relative viability < 0.9)
Conditions: 10 µM

Structure (SMILES)	cytotoxicity call
C=C1CC23CC1(O)CCC2C12C=CC(O)C(C)(C(=O)O1)C2C3C(=O)O (stereo not given)	inactive
Cc1noc(C)c1NC(=O)N(C)C[C@H]1OCCCC[C@@H](C)Oc2ccc(NS(=O)(=O)c3cccs3)cc2C(=O)N([C@H](C)CO)C[C@@H]1C	inactive
C[C@@H]1CN([C@H](C)CO)C(=O)Cc2cc(NS(=O)(=O)c3cn(C)cn3)ccc2O[C@@H]1CN(C)S(=O)(=O)c1ccc(Cl)cc1	inactive
Cn1cnc(CCNC(=O)C[C@H]2CC[C@H]3[C@@H](COC[C@@H](O)CN3C(=O)C3CC3)O2)c1	inactive
C[C@H](CO)N1C[C@H](C)[C@H](CN(C)S(=O)(=O)c2ccc(C#N)cc2)Oc2ncc(Br)cc2C1=O	inactive
C[C@@H]1CN([C@@H](C)CO)C(=O)Cc2cc(NC(=O)Nc3ccc(C(F)(F)F)cc3)ccc2O[C@@H]1CN(C)C(=O)NC1CCCCC1	active
Nc1nc(=O)[nH]cc1F	inactive
C[C@H](CO)N1C[C@H](C)[C@H](CN(C)Cc2ccc(-c3ccccc3)cc2)Oc2ccc(NC(=O)Cc3cn(C)c4ccccc34)cc2C1=O	active
C[C@H]1CN([C@@H](C)CO)C(=O)c2cccc(NS(=O)(=O)c3ccc(Cl)cc3)c2O[C@@H]1CN(C)Cc1ccc(Cl)c(Cl)c1	inactive
C[C@H](CO)N1C[C@H](C)[C@@H](CN(C)C(=O)Nc2ccc3c(c2)OCO3)Oc2c(NS(=O)(=O)c3cn(C)cn3)cccc2C1=O	inactive
CCS(=O)(=O)Nc1ccc2c(c1)C(=O)N(C)[C@H]1CC[C@@H](CC(=O)N[C@H]3CCN(Cc4ccccc4)C3)O[C@@H]1CO2	inactive
CC(=O)OCN1CCN(COC(C)=O)C1=O	inactive
COc1ccc(CN(C)C[C@@H]2Oc3c(NS(C)(=O)=O)cccc3C(=O)N([C@H](C)CO)C[C@H]2C)cc1	inactive
C[C@H]1CN([C@@H](C)CO)C(=O)c2cccc(NC(=O)Nc3ccc(F)cc3)c2O[C@H]1CN(C)S(=O)(=O)c1cn(C)cn1	inactive
CN(Cc1cnc2nc(N)nc(N)c2n1)c1ccc(C(=O)NC(CCC(=O)O)C(=O)O)cc1.O (stereo not given)	inactive
O=C(NS(=O)(=O)c1ccccc1)C1CC1	inactive
C[C@H]1CN([C@@H](C)CO)C(=O)c2cc(NC(=O)Nc3ccc(F)cc3)ccc2O[C@H]1CN(C)Cc1ccc(Oc2ccccc2)cc1	inactive
C[C@H](CO)N1C[C@H](C)[C@@H](CN(C)Cc2ccc(C(=O)Nc3ccccc3N)cc2)Oc2c(NC(=O)Nc3ccc4c(c3)OCO4)cccc2C1=O	inactive
NC[C@H]1CCS(=O)(=O)C1	inactive
C[C@H](CO)N1C[C@H](C)[C@H](CN(C)C(=O)Nc2ccc(C(F)(F)F)cc2)Oc2c(NC(=O)NC3CCCCC3)cccc2C1=O	inactive

Structure (SMILES)	cytotoxicity call
C[C@@H]1CN([C@H](C)CO)C(=O)c2cccc(NC(=O)Nc3ccc(C(F)(F)F)cc3)c2O[C@@H]1CN(C)Cc1ccccc1	inactive
COc1ccc(S(=O)(=O)N(C)C[C@H]2OCCCC[C@@H](C)Oc3ccc(NC(=O)Nc4ccccc4)cc3C(=O)N([C@@H](C)CO)C[C@@H]2C)cc1	inactive
Cc1noc(C)c1NC(=O)Nc1ccc2c(c1)C(=O)N([C@H](C)CO)C[C@H](C)[C@H](CN(C)Cc1ccc(Oc3ccccc3)cc1)O2	inactive
CN1CCN(C(=O)C[C@@H]2CC[C@H]3[C@H](COc4ccc(NC(=O)c5cccs5)cc4C(=O)N3C)O2)CC1	inactive
O=C(O)c1cccnc1	inactive
C[C@@H]1CCCCO[C@@H](CN(C)Cc2ccc3c(c2)OCO3)[C@H](C)CN([C@@H](C)CO)C(=O)c2cc(NS(=O)(=O)c3cccs3)ccc2O1	inactive
CNC[C@H]1Oc2cc(C#CCN(C)C)ccc2S(=O)(=O)N([C@@H](C)CO)C[C@H]1C	inactive
CC(C)(CO)[C@H](O)C(=O)NCCC(=O)NCCSSCCNC(=O)CCNC(=O)[C@H](O)C(C)(C)CO	inactive
COCC(=O)Nc1ccc2c(c1)C(=O)N(C)C[C@H](OC)[C@@H](C)CN(C(=O)Cc1ccccn1)[C@@H](C)CO2	inactive
C[C@H](CO)N1C[C@H](C)[C@H](CN(C)C(=O)Nc2cccc3ccccc23)Oc2ncc(-c3cccc(F)c3)cc2C1=O	inactive
O=C(C[C@@H]1CC[C@@H](NS(=O)(=O)c2ccccc2)[C@H](CO)O1)NCc1ccncn1	inactive
COc1ccc(CN(C)C[C@@H]2Oc3ccc(NS(=O)(=O)c4c(C)noc4C)cc3CC(=O)N([C@@H](C)CO)C[C@@H]2C)cc1	inactive
COc1ccc(NC(=O)Nc2ccc3c(c2)C(=O)N([C@@H](C)CO)C[C@H](C)[C@H](CN(C)S(=O)(=O)c2ccccc2)OCCCC[C@@H](C)O3)cc1	inactive
C[C@H](CO)N1C[C@H](C)[C@@H](CN(C)C(=O)Nc2ccc(C(F)(F)F)cc2)OCCCC[C@H](C)Oc2ccc(NS(=O)(=O)c3cn(C)cn3)cc2C1=O	inactive
Cc1noc(C)c1NC(=O)Nc1ccc2c(c1)C(=O)N([C@H](C)CO)C[C@H](C)[C@@H](CN(C)C(=O)Nc1ccc(F)cc1)OCCCC[C@H](C)O2	inactive
C[C@@H]1CCCCO[C@@H](CN(C)C(=O)Cc2ccccc2)[C@@H](C)CN([C@H](C)CO)C(=O)c2cc(NC(=O)CCC(F)(F)F)ccc2O1	inactive
COc1ccc(CN(C)C[C@@H]2OCCCC[C@H](C)Oc3ccc(NC(=O)Nc4ccccc4)cc3C(=O)N([C@@H](C)CO)C[C@@H]2C)cc1	inactive
O=C1C=CC(O)(CC(=O)OC[C@H]2O[C@@H](OC(=O)CC3(O)C=CC(=O)C=C3)[C@H](O)[C@@H](O)[C@H]2O)C=C1	inactive
C[C@H](CO)N1C[C@H](C)[C@@H](CN(C)C(=O)Nc2ccccc2)OCCCC[C@H](C)Oc2ccc(NS(=O)(=O)c3ccccc3)cc2C1=O	inactive
C[C@H](CO)N1C[C@H](C)[C@H](CN(C)C(=O)c2ccccc2)OCCCC[C@H](C)Oc2ccc(NC(=O)Nc3cccc4ccccc34)cc2C1=O	inactive
